Test results taken from patent publication US20030171435A1 (priority 2002, published 2003).

What was measured:
6H5D1C4 = test: Competition ELISA, cross reactivity with methamphetamine analogs, mAb 6H5D1C4; settings: % inhibition as compared with the antigen Met1
3A10A6A2 = test: Competition ELISA, cross reactivity with methamphetamine analogs, mAb 3A10A6A2; settings: % inhibition as compared with the antigen Met1

SMILES	Cross reactivity with analogs, 6H5D1C4 (6H5D1C4) [%]	Cross reactivity with analogs, 3A10A6A2 (3A10A6A2) [%]
COc1ccc(CCN)cc1O [3-hydroxy-4-methoxyphenetylalamine]	1	2
NCCc1ccc(O)c(O)c1 [3-hydroxytyramine]	1	2
COc1ccc(CC(C)N)cc1 (centres unmarked) [4-methoxyamphetamine]	16	79
CNC(C)Cc1ccc(OC)cc1 (centres unmarked) [4-methoxymetamphetamine]	8	6
CSc1ccc(CC(C)N)cc1 (centres unmarked) [4-methylthioamphetamine]	100	58
CC(N)Cc1ccccc1 (centres unmarked) [Amphetamine]	1	29
CNC(C)Cc1ccc2c(c1)OCO2 (centres unmarked) [Ecstasy, 3,4-methylenedioxymethamphetamine]	6	209
CNC[C@H](O)c1ccc(O)c(O)c1 [Epinephrine]	1	3
C[C@@H](Cc1ccccc1)N(C)CC(=O)O [Hapten 1 (Met1)]	100	100
CN[C@@H](C)Cc1ccccc1 [Methamphetamine]	68	229
C[C@@H]([C@@H](O)c1ccccc1)N(C)C [Methyl pseudo ephedrine]	2	38
CCNC(C)Cc1ccccc1 (centres unmarked) [N-ethylamphetamine]	72	54
CC(N)C(O)c1ccccc1 (centres unmarked) [Nor-ephedrine]	1	2
